Experimental data published in patent US20190330296A1 (Janssen / Centocor, published 2019).
“And” between values parts separate entries of the source, which are not always exact repeats. Equal entries are not always repeated.

What was measured:
human GLP-1 receptor = human GLP-1 receptor (human, UniProt P43220 24-463); assay: cell-based or functional assay
[1] = target: T1, human neuropeptide Y2 receptor (human, UniProt P49146 1-381); assay: cell-based or functional assay
T1 sequence (looked up): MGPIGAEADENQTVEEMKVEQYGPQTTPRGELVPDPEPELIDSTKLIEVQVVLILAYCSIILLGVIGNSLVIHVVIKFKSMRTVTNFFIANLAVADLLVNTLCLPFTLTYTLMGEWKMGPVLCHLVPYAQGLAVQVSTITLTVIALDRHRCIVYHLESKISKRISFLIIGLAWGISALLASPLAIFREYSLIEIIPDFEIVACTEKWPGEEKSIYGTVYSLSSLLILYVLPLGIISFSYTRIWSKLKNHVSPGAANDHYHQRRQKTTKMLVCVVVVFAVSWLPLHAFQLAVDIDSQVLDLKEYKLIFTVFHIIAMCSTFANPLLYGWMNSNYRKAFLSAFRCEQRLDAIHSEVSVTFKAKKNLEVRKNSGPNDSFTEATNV

Chain of human GLP-1 receptor (P43220 24-463): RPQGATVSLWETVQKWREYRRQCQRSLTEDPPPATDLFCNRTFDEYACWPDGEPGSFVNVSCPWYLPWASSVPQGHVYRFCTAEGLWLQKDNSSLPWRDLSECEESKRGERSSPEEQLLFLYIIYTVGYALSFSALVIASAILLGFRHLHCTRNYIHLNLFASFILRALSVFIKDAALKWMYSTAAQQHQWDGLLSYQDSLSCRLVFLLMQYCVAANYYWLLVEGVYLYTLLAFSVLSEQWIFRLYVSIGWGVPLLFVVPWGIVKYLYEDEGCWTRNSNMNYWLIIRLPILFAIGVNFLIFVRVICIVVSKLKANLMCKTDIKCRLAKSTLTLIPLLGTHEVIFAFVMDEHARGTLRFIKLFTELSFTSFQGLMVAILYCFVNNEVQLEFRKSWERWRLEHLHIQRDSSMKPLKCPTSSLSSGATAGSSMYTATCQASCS

Row | Human GLP1R EC50 (human GLP-1 receptor) | Human Y2R EC50 [1] | Binder
1 | 0.066 nM | – | GLP-1 fusion peptide GF8 (SEQ ID NO:120) (Fc fusion) HGEGTFTSDVSSYLEEQAAKEFIAWLVKGGGGGGGAGGGGAGGGGAA[human IgG4 Fc with S228P F234A L235A (EU numbers) not written out]GGGGAGGGGAGGGGACA
2 | 0.05 nM and 0.106 nM | – | GLP-1 fusion peptide GF19 (SEQ ID NO:131) (Fc fusion) HGEGTFTSDVSSYLEEQAAKEFIAWLVKGGGGGGGAGGGGAGGGGAA[human IgG4 Fc with S228P F234A L235A (EU numbers) not written out]GGGAPAPAPEEEPCA
3 | 0.068 nM and 0.126 nM | – | GLP-1 fusion peptide GF24 (SEQ ID NO:136) (Fc fusion) HGEGTFTSDVSSYLEEQAAKEFIAWLVKGGGGGGGAGGGGAGGGGAA[human IgG4 Fc with S228P F234A L235A (EU numbers) not written out]APAPAPAPAPAPCPEEP
4 | 0.042 nM | – | GLP-1 fusion peptide GF63 (SEQ ID NO:175) (Fc fusion) HGEGTFTSDVSSYLEEQAAKEFIAWLVKGGGAPAPAPAPAPAPAPAPAPAPA[human IgG4 Fc with S228P F234A L235A (EU numbers) not written out]ASGSAPAPAPEEEPCA
5 | 0.078 nM | 0.009 nM | GLP-1 fusion peptide coupled cyclic PYY peptide conjugate SEQ ID NO:225 (Fc fusion, [cyclo-(G2-COCH2-C30), K(AcBr)11, N-Me-R35]-PYY2-36; Br displaced on conjugation to the linker Cys; C-terminal amide; Cys of the second linker peptide thioether-linked to the Lys11 side chain of the cyclic PYY peptide) HGEGTFTSDVSSYLEEQAAKEFIAWLVKGGGGGGGAGGGGAGGGGAA[human IgG4 Fc with S228P F234A L235A (EU numbers) not written out]APAPAPAPAPAPCP peptide: GISPEAPGEKASPEELNRYYASLRHYLNCVTRQRY
6 | 0.069 nM | 0.014 nM | GLP-1 fusion peptide coupled cyclic PYY peptide conjugate SEQ ID NO:229 (Fc fusion, [cyclo-(G2-COCH2-C30), K(AcBr)11, N-Me-R35]-PYY2-36; Br displaced on conjugation to the linker Cys; C-terminal amide; Cys of the second linker peptide thioether-linked to the Lys11 side chain of the cyclic PYY peptide) HGEGTFTSDVSSYLEEQAAKEFIAWLVKGGGGGGGAGGGGAGGGGAA[human IgG4 Fc with S228P F234A L235A (EU numbers) not written out]APAPAPAPAPAPCPEEP peptide: GISPEAPGEKASPEELNRYYASLRHYLNCVTRQRY
7 | 0.103 nM | 0.01 nM | GLP-1 fusion peptide coupled cyclic PYY peptide conjugate SEQ ID NO:233 (Fc fusion, [cyclo-(G2-COCH2-C30), K(AcBr)11, N-Me-R35]-PYY2-36; Br displaced on conjugation to the linker Cys; C-terminal amide; Cys of the second linker peptide thioether-linked to the Lys11 side chain of the cyclic PYY peptide) HGEGTFTSDVSSYLEEQAAKEFIAWLVKGGGGGGGAGGGGAGGGGAA[human IgG4 Fc with S228P F234A L235A (EU numbers) not written out]APAPEEPCA peptide: GISPEAPGEKASPEELNRYYASLRHYLNCVTRQRY
8 | 0.036 nM | 0.007 nM | GLP-1 fusion peptide coupled cyclic PYY peptide conjugate SEQ ID NO:240 (Fc fusion, [cyclo-(G2-COCH2-C30), K(AcBr)11, N-Me-R35]-PYY2-36; Br displaced on conjugation to the linker Cys; C-terminal amide; Cys of the second linker peptide thioether-linked to the Lys11 side chain of the cyclic PYY peptide) HGEGTFTSDVSSYLEEQAAKEFIAWLVKGGGAPAPAPAPAPAPAPAPAPAPA[human IgG4 Fc with S228P F234A L235A (EU numbers) not written out]ASGSAPAPAPEEEPCA peptide: GISPEAPGEKASPEELNRYYASLRHYLNCVTRQRY
9 | 0.062 nM | 0.015 nM | GLP-1 fusion peptide coupled cyclic PYY peptide conjugate SEQ ID NO:251 (Fc fusion, [cyclo-(G2-COCH2-C30), K(AcBr)11, N-Me-R35]-PYY2-36; Br displaced on conjugation to the linker Cys; C-terminal amide; Cys of the second linker peptide thioether-linked to the Lys11 side chain of the cyclic PYY peptide) HGEGTFTSDVSSYLEEQAAKEFIAWLVKGGGGGGGAGGGGAGGGGAA[human IgG4 Fc with S228P F234A L235A (EU numbers) not written out]GGGAPAPAPEEEPCA peptide: GISPEAPGEKASPEELNRYYASLRHYLNCVTRQRY
10 | 0.08 nM | 0.009 nM | GLP-1 fusion peptide coupled cyclic PYY peptide conjugate SEQ ID NO:252 (Fc fusion, [cyclo-(G2-COCH2-C30), K(AcBr)11, N-Me-R35]-PYY2-36; Br displaced on conjugation to the linker Cys; C-terminal amide; Cys of the second linker peptide thioether-linked to the Lys11 side chain of the cyclic PYY peptide) HGEGTFTSDVSSYLEEQAAKEFIAWLVKGGGGGGGAGGGGAGGGGAA[human IgG4 Fc with S228P F234A L235A (EU numbers) not written out]GGGGAGGGGAGGGGACA peptide: GISPEAPGEKASPEELNRYYASLRHYLNCVTRQRY
11 | 0.062 nM | – | GLP-1 fusion peptide GF1 (SEQ ID NO:113) (Fc fusion) HGEGTFTSDVSSYLEEQAAKEFIAWLVKGGGGGGGAGGGGAGGGGAA[human IgG4 Fc with S228P F234A L235A (EU numbers) not written out]APAPAPAPAPAPCP
